# Paper PMC10073109
# These are yes or no findings as the source states them, for the method shown. Binding seen in cells or lysates may run through a third protein. Some entries that bind do so weakly or less than the wild type. For some assays here: Sequences can lack the tags named with a protein.
# T1: Nuclear Receptor Subfamily 2 Group F, Member 2, isoform 1 (NR2F2-Iso1), full-length NR2F2 (human (endogenous in 4L and MeWo melanoma cells)) (UniProt P24468)
# T1 sequence: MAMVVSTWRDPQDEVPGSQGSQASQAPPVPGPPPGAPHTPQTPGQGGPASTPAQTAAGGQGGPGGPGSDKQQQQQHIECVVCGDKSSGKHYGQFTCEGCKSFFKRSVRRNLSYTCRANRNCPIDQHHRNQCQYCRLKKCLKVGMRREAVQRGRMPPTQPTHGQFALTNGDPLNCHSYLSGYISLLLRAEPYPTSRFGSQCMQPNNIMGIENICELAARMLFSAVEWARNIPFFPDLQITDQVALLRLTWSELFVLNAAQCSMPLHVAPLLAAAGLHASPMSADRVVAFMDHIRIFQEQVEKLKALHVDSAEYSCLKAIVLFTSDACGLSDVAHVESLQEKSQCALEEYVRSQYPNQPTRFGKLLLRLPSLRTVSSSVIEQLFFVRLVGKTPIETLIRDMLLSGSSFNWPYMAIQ
# T2: GFP-NR2F2-Iso2 (wild type) (human) (UniProt P24468)
# T2 sequence: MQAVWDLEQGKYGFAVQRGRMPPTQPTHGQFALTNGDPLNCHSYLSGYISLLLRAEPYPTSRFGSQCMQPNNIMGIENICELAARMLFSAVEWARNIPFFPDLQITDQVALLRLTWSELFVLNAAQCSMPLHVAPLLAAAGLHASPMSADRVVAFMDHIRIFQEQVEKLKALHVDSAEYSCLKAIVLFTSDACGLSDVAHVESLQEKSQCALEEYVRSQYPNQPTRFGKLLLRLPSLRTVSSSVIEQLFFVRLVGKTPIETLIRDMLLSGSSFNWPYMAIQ
# T3: GFP-NR2F2-Iso2 Leucine 231 and Leucine 232 to Alanine (Iso2-m1m2) (human) (UniProt P24468)
# T3 sequence: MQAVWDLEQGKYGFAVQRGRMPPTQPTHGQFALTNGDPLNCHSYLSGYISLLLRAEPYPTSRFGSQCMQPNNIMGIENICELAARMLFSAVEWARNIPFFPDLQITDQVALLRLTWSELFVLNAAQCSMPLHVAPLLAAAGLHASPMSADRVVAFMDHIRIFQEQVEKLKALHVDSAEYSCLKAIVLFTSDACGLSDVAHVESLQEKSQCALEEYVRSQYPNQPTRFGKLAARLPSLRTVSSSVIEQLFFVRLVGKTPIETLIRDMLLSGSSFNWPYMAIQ
# T4: GFP-NR2F2-Iso2 Leucine 231 to Alanine (Iso2-m1) (human) (UniProt P24468)
# T4 sequence: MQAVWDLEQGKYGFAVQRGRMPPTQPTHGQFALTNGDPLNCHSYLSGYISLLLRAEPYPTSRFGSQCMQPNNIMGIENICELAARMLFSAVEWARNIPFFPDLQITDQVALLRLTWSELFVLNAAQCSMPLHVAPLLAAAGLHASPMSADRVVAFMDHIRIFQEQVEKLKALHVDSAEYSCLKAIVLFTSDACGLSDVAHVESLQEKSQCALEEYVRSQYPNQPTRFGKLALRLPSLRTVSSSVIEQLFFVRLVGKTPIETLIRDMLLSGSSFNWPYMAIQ
# T5: GFP-NR2F2-Iso2 Leucine 232 to Alanine (Iso2-m2) (human) (UniProt P24468)
# T5 sequence: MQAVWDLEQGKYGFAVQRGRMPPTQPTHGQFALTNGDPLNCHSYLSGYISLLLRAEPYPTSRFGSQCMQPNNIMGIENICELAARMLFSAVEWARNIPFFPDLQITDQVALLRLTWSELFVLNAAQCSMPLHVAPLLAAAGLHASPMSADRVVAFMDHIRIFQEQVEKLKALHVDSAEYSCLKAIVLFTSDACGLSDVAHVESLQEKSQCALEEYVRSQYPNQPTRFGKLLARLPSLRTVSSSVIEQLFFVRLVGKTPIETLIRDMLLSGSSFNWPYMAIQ
# How the values were obtained:
# [1] = molecular target: T1, Nuclear Receptor Subfamily 2 Group F, Member 2, isoform 1 (NR2F2-Iso1), full-length NR2F2 (human (endogenous in 4L and MeWo melanoma cells)); test: co-IP; NR2F2-Iso1 antibody (Abcam 41859 or Active Motif 61214) cross-linked with BS3 to Dynabeads Protein A; 1 mg 4L whole cell extract (native or formaldehyde cross-linked, not told which), lysis buffer 10 mM Tris/HCl pH 7.5, 150 mM NaCl, 0.5 mM EDTA, 0.5% NP-40, overnight at 4 °C; western blot with isoform-specific antibodies
# [2] = molecular target: T2, GFP-NR2F2-Iso2 (wild type) (human); test: co-IP; GFP Trap (ChromoTek) beads; 1 mg whole cell extract of MeWo cells transduced with GFP-NR2F2-Iso2 or its mutants (native or formaldehyde cross-linked, not told which), lysis buffer 10 mM Tris/HCl pH 7.5, 150 mM NaCl, 0.5 mM EDTA, 0.5% NP-40, overnight at 4 °C; western blot for endogenous NR2F2-Iso1
# [3] = molecular target: T3, GFP-NR2F2-Iso2 Leucine 231 and Leucine 232 to Alanine (Iso2-m1m2) (human); test: as above
# [4] = molecular target: T4, GFP-NR2F2-Iso2 Leucine 231 to Alanine (Iso2-m1) (human); test: as above
# [5] = molecular target: T5, GFP-NR2F2-Iso2 Leucine 232 to Alanine (Iso2-m2) (human); test: as above
binding [1],binding [2],binding [3],binding [4],binding [5],Binder
binds,–,–,–,–,"Nuclear Receptor Subfamily 2 Group F, Member 2, isoform 2 (NR2F2-Iso2) (protein, UniProt P24468-2 1-281) MQAVWDLEQGKYGFAVQRGRMPPTQPTHGQFALTNGDPLNCHSYLSGYISLLLRAEPYPTSRFGSQCMQPNNIMGIENICELAARMLFSAVEWARNIPFFPDLQITDQVALLRLTWSELFVLNAAQCSMPLHVAPLLAAAGLHASPMSADRVVAFMDHIRIFQEQVEKLKALHVDSAEYSCLKAIVLFTSDACGLSDVAHVESLQEKSQCALEEYVRSQYPNQPTRFGKLLLRLPSLRTVSSSVIEQLFFVRLVGKTPIETLIRDMLLSGSSFNWPYMAIQ"
–,binds,no binding,no binding,no binding,"Nuclear Receptor Subfamily 2 Group F, Member 2, isoform 1 (NR2F2-Iso1), full-length NR2F2 (protein, UniProt P24468-1 1-414) MAMVVSTWRDPQDEVPGSQGSQASQAPPVPGPPPGAPHTPQTPGQGGPASTPAQTAAGGQGGPGGPGSDKQQQQQHIECVVCGDKSSGKHYGQFTCEGCKSFFKRSVRRNLSYTCRANRNCPIDQHHRNQCQYCRLKKCLKVGMRREAVQRGRMPPTQPTHGQFALTNGDPLNCHSYLSGYISLLLRAEPYPTSRFGSQCMQPNNIMGIENICELAARMLFSAVEWARNIPFFPDLQITDQVALLRLTWSELFVLNAAQCSMPLHVAPLLAAAGLHASPMSADRVVAFMDHIRIFQEQVEKLKALHVDSAEYSCLKAIVLFTSDACGLSDVAHVESLQEKSQCALEEYVRSQYPNQPTRFGKLLLRLPSLRTVSSSVIEQLFFVRLVGKTPIETLIRDMLLSGSSFNWPYMAIQ"
